# Data reported in publication PMC4336329 (PLoS ONE, 2015).
# Hit rate of the full screen: of about 310,000 compounds, about 2,200 (0.71%) showed an effect of 50% or more. Effects have a minus sign here. The list shows a part of the results.
# Biological target: human ether-à-go-go-related gene (hERG) potassium channel (human, UniProt Q12809)
# Assay: primary screen, population patch clamp on CHO cells stably expressing hERG
# human ether-à-go-go-related gene (hERG) potassium channel, sequence (Q12809 whole entry, looked up): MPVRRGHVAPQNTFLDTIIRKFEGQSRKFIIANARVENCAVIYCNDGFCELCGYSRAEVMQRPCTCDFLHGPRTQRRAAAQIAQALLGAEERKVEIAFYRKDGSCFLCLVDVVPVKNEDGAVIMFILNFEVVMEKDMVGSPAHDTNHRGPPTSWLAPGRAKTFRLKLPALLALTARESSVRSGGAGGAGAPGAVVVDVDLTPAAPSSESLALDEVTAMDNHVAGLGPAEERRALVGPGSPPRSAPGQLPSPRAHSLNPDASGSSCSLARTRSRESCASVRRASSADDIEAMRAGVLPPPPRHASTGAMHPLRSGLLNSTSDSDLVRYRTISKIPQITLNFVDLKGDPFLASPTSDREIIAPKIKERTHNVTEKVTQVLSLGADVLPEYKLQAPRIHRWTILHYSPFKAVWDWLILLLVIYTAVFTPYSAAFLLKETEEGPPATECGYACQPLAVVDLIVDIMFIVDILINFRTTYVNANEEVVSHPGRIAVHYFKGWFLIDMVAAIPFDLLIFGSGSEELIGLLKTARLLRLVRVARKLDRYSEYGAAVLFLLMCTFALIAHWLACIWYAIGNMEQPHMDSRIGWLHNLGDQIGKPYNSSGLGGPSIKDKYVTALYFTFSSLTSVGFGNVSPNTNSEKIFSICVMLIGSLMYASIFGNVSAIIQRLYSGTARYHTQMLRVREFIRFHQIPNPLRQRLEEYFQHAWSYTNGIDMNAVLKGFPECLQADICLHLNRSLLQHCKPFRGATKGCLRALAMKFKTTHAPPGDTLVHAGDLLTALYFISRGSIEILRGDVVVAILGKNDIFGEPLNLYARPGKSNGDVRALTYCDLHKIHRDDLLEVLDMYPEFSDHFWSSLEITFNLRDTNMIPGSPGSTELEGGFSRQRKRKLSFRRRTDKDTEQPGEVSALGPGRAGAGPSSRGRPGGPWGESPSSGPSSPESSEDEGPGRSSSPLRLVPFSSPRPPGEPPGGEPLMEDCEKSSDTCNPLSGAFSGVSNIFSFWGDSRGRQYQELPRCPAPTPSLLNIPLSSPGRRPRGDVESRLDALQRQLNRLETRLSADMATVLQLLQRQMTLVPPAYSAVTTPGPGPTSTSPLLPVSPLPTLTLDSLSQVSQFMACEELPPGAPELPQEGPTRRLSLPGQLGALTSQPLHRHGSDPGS
row,SMILES,"hERG current change (%, negative = inhibition) at 1uM [%]"
1,Cc1ccc(OCC(=O)NC2CCCc3ccccc32)c(C)c1 (stereo not shown),3.53
2,CC(C)(C)NC(=O)C(c1ccc(OCC(N)=O)cc1)N(C(=O)c1cccnc1)C1CC1 (stereo not shown),-0.31
3,COC(=O)Nc1ccc(S(=O)(=O)N2CCCC(C(=O)N3CC(C)OC(C)C3)C2)cc1 (stereo not shown),14.3
4,Cc1ccc(C)c(N=C2CCCN2Cc2ccccc2)c1C#N,7.76
5,CCN(CC)S(=O)(=O)c1ccc(C(=O)N2CCN(CCN3C(=O)c4cccc5cccc(c45)C3=O)CC2)cc1,10.3
6,CCc1ccc(S(=O)(=O)NCCc2csc(-c3cccnc3)n2)s1,9.64
7,CC(C)CCNC(=O)NC(=O)CSc1nnc(-c2ccccc2F)n1N,-3.73
8,O=C(Cc1ccccc1)NCC1OCCc2ccccc21 (stereo not shown),1.84
9,COC(=O)c1cc(Br)c(=O)n(Cc2ccc3c(c2)OCO3)c1,-0.586
10,C/C(CCc1ccccc1)=N\NC(=S)NCCc1ccccc1,21.7
11,COC(=O)CCP(=O)(O)Cc1ccccc1CP(=O)(O)CCC(=O)OC,5.13
12,COc1ccc(OC)c(NC(=O)c2nnn(Cc3ccc(Br)cc3F)c2N)c1,13.9
13,COc1ccc(N2C(=O)C(CC(=O)Nc3ccccc3)N(Cc3ccccn3)C2=S)cc1 (stereo not shown),5.08
14,Cc1ccc2cc(CN(CC3CCCO3)C(=S)NCc3ccco3)c(=O)[nH]c2c1C (stereo not shown),6.14
15,Cc1ccc(C)c(Cn2c(=O)n(CCCC(=O)NCc3ccco3)c(=O)c3ccccc32)c1,10.2
16,COC(=O)C1CCCCN1C(=O)CCc1nnc(CCc2c[nH]c3ccccc23)o1 (stereo not shown),12.8
17,CCOC(=O)CSC1=C(C#N)C(c2ccccc2Cl)C(C(=O)OC)C(=O)N1 (stereo not shown),3.46
18,COc1ccc2cc(C)c3nnc(SCC(=O)Nc4nc(-c5ccccc5)cs4)n3c2c1,-8.76
19,COc1ccc(C(CC(=O)Nc2nccs2)n2cccc2)cc1 (stereo not shown),13.4
20,Cc1ccc(S(=O)(=O)N2CCOCC2)cc1C(=O)Nc1ccc(S(=O)(=O)Nc2nccs2)cc1,6.12
21,O=C(Nc1ccccc1)c1ccccc1OCc1cccc([N+](=O)[O-])c1,14.1
22,Cc1ccc(-c2nnc(COc3cccc(-n4cnnn4)c3)o2)cc1,3.56

row,SMILES,"hERG current change (%, negative = inhibition) at 1uM [%]"
1,O=C(c1ccncc1)N1N=C(c2ccc(Cl)cc2)CC1c1ccccc1O (stereo not shown),23.4
2,CC[C@@]12C(=O)N(c3cccc(Br)c3)C(=O)N1[C@H](c1ccc(OC)cc1)[C@@H]1C(=O)N(C(C)(C)C)C(=O)[C@@H]12,1.03
3,O=C(CN1CCOCC1)Nc1ccccc1NC(=O)C1CCN(c2ncccn2)CC1,11.6
4,O=C(NCc1ccco1)C1CCCN(S(=O)(=O)c2cccc3nsnc23)C1 (stereo not shown),7.92
5,Cn1c(Nc2ccc(F)cc2)nc2ccccc21,-77.5
6,CCC(C)[C@H](NC(=O)N1CCn2c1nc1ccccc12)C(=O)NCc1ccccc1 (stereo partly shown),11.9
7,CCCN1C(=O)/C(=C/c2nc3ccccc3c(=O)[nH]2)c2cc(C)ccc21,12
8,Nc1ccccc1C(=O)N1CCC(O)(c2ccc(Cl)cc2)CC1,13.3
9,Cc1nn(C)c(-c2n[nH]c(=S)n2Cc2ccco2)c1Cl,12
10,CS(=O)(=O)N1CCN(c2ccccc2NC(=O)CSc2nnc(-c3ccco3)o2)CC1,6.15
11,CCCCS(=O)(=O)Nc1ccc2ncn(C)c(=O)c2c1,5.12
12,COc1ccccc1CCNC(=O)C(=O)NCC1OCCN1S(=O)(=O)c1ccc(OC)c(OC)c1 (stereo not shown),-0.0962
13,O=C(NCC(=O)N1CCCCCC1)c1ccc(Br)cc1,11.2
14,O=C1C2C3CCC(C3)C2C(=O)N1CNc1ccc(F)cc1 (stereo not shown),9.38
15,Cc1ccc(-c2csc(Nc3ccccn3)n2)cc1,-0.636
16,CC(Sc1nnc(Cc2ccccc2)n1C)C(=O)NC1CC1 (stereo not shown),11
17,COc1ccc(-c2nc(CN3CCC(C(=O)NC4CCN(Cc5ccccc5)CC4)CC3)c(C)o2)cc1OC,8.13
18,COc1ccc(C(=O)Nc2ccc(C(=O)N3CCCC3)cc2)cc1[N+](=O)[O-],-4.85
19,c1ccc2oc(N3CCNCC3)nc2c1,7.21
20,CSc1ccc(Cn2nnc(C(=O)NCCc3ccc(Cl)cc3)c2N)cc1,10.9
21,CCn1c(SCC(=O)N2CCN(c3ccccc3)CC2)nc2c([nH]c3ccccc32)c1=O,6.48
22,Nc1nc(Nc2ccc(Cl)cc2)n[nH]1,1.23

row,SMILES,"hERG current change (%, negative = inhibition) at 1uM [%]"
1,Cc1ccccc1C(=O)NC(NCc1ccco1)C(Cl)(Cl)Cl (stereo not shown),11.3
2,COc1cc(C(=O)N2C[C@H]3C[C@@H](C2)c2cccc(=O)n2C3)cc(OC)c1OC,13.4
3,O=C(Cn1ncc2c([nH]c3ccccc32)c1=O)N1CCOCC1,10.6
4,CCc1c(C(C)S(=O)(=O)c2ccc(C)cc2)[nH]c(=O)n1-c1ccc(OC(F)(F)F)cc1 (stereo not shown),14.5
5,CCc1nnc(NC(=O)CCC(=O)N2CCN(c3cc(C)ccc3C)CC2)s1,13.2
6,C=CCNc1nc(Nc2cc(Cl)ccc2OC)nc(OC)n1,16.4
7,COc1cccc(-c2cc(C(=O)Nc3c(C)nn(Cc4ccccc4C)c3C)no2)c1,-6.56
8,CCCc1cc(=O)oc2cc(OCC(=O)NCCc3c[nH]c4ccc(OC)cc34)ccc12,-0.609
9,O=C(COC(=O)/C=C/c1cccs1)NC(c1ccccc1)c1ccccc1,7.52
10,O=C(OC(C(=O)NCc1ccc2c(c1)OCO2)c1ccccc1F)c1ccco1 (stereo not shown),5.69
11,Cc1cccc([C@@H]2[C@@H]3C(=O)N(Cc4ccccc4)C(=O)[C@@H]3[C@]3(Cc4ccccc4)C(=O)N(c4cccc(Cl)c4)C(=O)N23)c1,12
12,O=C(CCNS(=O)(=O)c1ccc2c(c1)CCC(=O)N2)Nc1ccc(F)c(F)c1,7.73
13,COC(=O)CSc1ncnc2c1sc1nc(-c3ccco3)c3c(c12)CC(C)(C)OC3,6.3
14,CCOC(=O)CCCNC(=O)CCCNC(=O)C(c1ccccc1)c1ccccc1,-0.415
15,Cc1ccc(C(C)(C)C)c(OCCCn2ccnc2)c1.O=C(O)C(=O)O,2.89
16,Cn1nc(C(=O)NC2CCCCCC2)ccc1=O,4.44
17,Cc1ccc(S(=O)(=O)CC(=O)Nc2nnc(C(C)C)s2)cc1,10
18,CCOC(=O)C1CCN(C(=O)c2ccccc2NC(=O)c2ccc(Cl)cc2)CC1,2.06
19,CC(C)n1nnnc1SCC(=O)N1N=C(c2cccs2)CC1c1cccs1 (stereo not shown),2.55
20,COc1ccc([C@@H]2CC(=O)c3c(O)cc(O[C@@H]4OC(CO[C@@H]5OC(C)[C@H](O)[C@H](O)C5O)[C@@H](O)[C@@H](O)C4O)cc3O2)cc1O (stereo partly shown),7.7
21,Cc1c(NC(=O)Nc2cccc(C(F)(F)F)c2)c(=O)n(-c2ccccc2)n1C,3.57
22,C=CCOc1ccc(Cl)cc1CNCCCN1CCOCC1.Cl,4.68

row,SMILES,"hERG current change (%, negative = inhibition) at 1uM [%]"
1,CN(C)CC1CSCCC1(O)c1cccc(Cl)c1.Cl (stereo not shown),10.4
2,Cc1[nH]c2ccccc2c1/C=N/NS(=O)(=O)c1ccccc1,14.4
3,C/C(=N/NC(=O)c1ccccn1)c1ccncc1,12.8
4,COc1cc(OC)c(OC)cc1CN(C)CC1CCCN(CCc2ccccc2F)C1 (stereo not shown),-11.3
5,Cc1cccc(N2CCN(Cc3nc(-c4ccc(F)cc4F)oc3C)CC2)n1,-7.87
6,N#Cc1c(C(F)(F)F)cc(-c2cccs2)nc1N1CCCCC1,16.7
7,CC(=O)CCc1ccc(OCCCCN2CCC(Cc3ccccc3)CC2)cc1.O=C(O)C(=O)O,-68.3
8,COc1ccccc1-n1c(-c2ccccc2Cl)nc2ccccc2c1=O,6.57
9,CC(=O)Nc1nc2n(n1)C(c1ccc(Cl)cc1)C=C(C)N2 (stereo not shown),9.35
10,Cc1ccc(S(=O)(=O)NC2CC2)cc1,12.7
11,CC1CCCC(C)N1CC(O)COCc1ccccc1.Cl (stereo not shown),10
12,CCCN1C(=O)/C(=C/c2ccc(N3CCCC3)c(C)c2)NC1=S,1.62
13,COc1ccc(NC(=O)c2cc([N+](=O)[O-])ccc2O)cc1,-14.5
14,CC(NC(N)=O)C(=O)Nc1ccc(Cl)c(S(=O)(=O)Nc2ccc(Br)cc2)c1 (stereo not shown),16.1
15,O=C(NC(=S)Nc1ccc(S(=O)(=O)N2CCCCC2)cc1)c1cccs1,13.8
16,Cc1ccccc1CNC(=O)C1CCCN(c2nnc(C)c3c(C)n(-c4ccccc4)nc23)C1 (stereo not shown),11.7
17,CCOC(=O)c1c(NC(=O)COc2ncnc3ccccc23)sc(C)c1C,6.47
18,Cc1noc(C)c1C(=O)OCC(=O)NCCc1ccccc1,14.8
19,Cc1cc(C)nc(NC(=O)c2c(Cl)cccc2Cl)n1,5.34
